# PubChem BioAssay AID686979 (National Center for Advancing Translational Sciences (NCATS), 2013)
# Values joined by “and” are separate entries in the source; they are usually repeats but may differ in a detail not shown here. Equal values may be shown once. Hit rate of the full screen: of about 420,000 compounds, about 50,000 (12%) were called active. This list was built around the results that the source calls inconclusive (neither active nor inactive); the mix of calls is not that of the screen. The call rests on the fitted dose curve; in most records, active means well fitted inhibition curve with a large enough effect; inconclusive means small, poorly fitted or top-dose-only effect; inactive means flat fitted curve, though single readings scatter. Potencies beside an inconclusive call are fits to weak or partial responses and may not hold up.
# Test: qHTS for Inhibitors of human tyrosyl-DNA phosphodiesterase 1 (TDP1): qHTS in cells in presence of CPT; further: nearly all actives have a fitted effect of over 55% in size
# Settings: chicken DT40 Tdp1-/-;hTDP1 cells + 20 nM CPT, ATP luminescence, 48 h; activity change, negative = growth inhibition: at 46.2 µM (top of the series) unless noted
# Outline: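 Chicken DT40 Tdp1-/- cells stably complemented with human TDP1 were seeded at 400 cells/well in medium containing 20 nM camptothecin, exposed to pin-transferred compounds, and grown at 37 °C for at least 48 hr. Viability was read as ATP luminescence.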
# On the % scale 0 is the no-effect control and ±100 the full control effect; potency means the concentration at half of the fitted maximal effect; tags describe the fitted curve by direction and shape.
SMILES,"activity change, negative = growth inhibition",Potency
Cc1c(C(=O)N/N=C/c2cccs2)nnn1-c1nonc1N,inactive: 11.2%,–
CC(C)c1nnc(NC(=O)CCC(=O)N2CCC(Cc3ccccc3)CC2)s1,–,"inconclusive: 23.1 µM [inhibitor, single point]"
O=C1O[C@H](CO)[C@@H](O)[C@H](O)[C@H]1O,–,inactive
COc1ccccc1-c1ccc(SCc2ccc([N+](=O)[O-])cc2)nn1,–,"inconclusive: 29.1 µM [inhibitor, single point]"
O=C(Cn1cnc2cc([N+](=O)[O-])ccc2c1=O)Nc1cccc2ccccc12,–,"inconclusive: 13 µM [inhibitor, partial curve]"
Cc1ccc(NC(=O)NCCOCCn2c(=O)oc3ccccc32)cc1F,–,active: 5.8 µM
O=c1ccc2ccc(OCCOc3cccc(Cl)c3)cc2o1,–,"inconclusive: 23.1 µM [inhibitor, single point]"
Cc1noc(/C=C/N(C)C)c1S(=O)(=O)N1CCN(c2ccc(F)cc2)CC1,–,"inconclusive: 29.1 µM [inhibitor, single point]"
CCN1C(=O)[C@@H]2[C@@H](c3ccc(SC4CCCCC4)cc3)N3CCC[C@@]3(C(=O)OC)[C@@H]2C1=O,–,"inconclusive: 25.9 µM [inhibitor, single point]"
O=C(OCC1CCCO1)c1ccc2c(c1)N(Cc1cccc(Cl)c1)C(=O)c1ccccc1S2(=O)=O (stereo not given),–,"inconclusive: 29.1 µM [inhibitor, single point]"
Nc1nonc1-n1nnc(C(=O)N/N=C/c2cc(Br)ccc2O)c1CSC1=NCCS1,–,active: 5.8 µM
O=C(c1oc2ccccc2c1CSCc1ccccc1)N1CCN(c2ncccn2)CC1,–,"inconclusive: 23.1 µM [inhibitor, single point]"
COc1ccc(S(=O)(=O)NCC(=O)N(CC(=O)NCc2ccco2)C2CCCC2)cc1,inactive: -1.48%,–
O=C(N/N=C/c1ccco1)c1cc(-c2ccccc2)n[nH]1,–,"inconclusive: 16.4 µM [inhibitor, single point]"
CCOc1ccc(/C=N/NC(=O)c2c(-c3ccccc3)noc2C)cc1,inactive: 13.9%,–
COc1ccc(Cc2nnc(NC(=O)c3ccc(OC)c(OC)c3)s2)cc1,–,active: 23.1 µM
Cc1cc(=S)[nH]c(=S)[nH]1,inactive: -2.76%,–
Cc1nc2cc(-c3ccc(F)cc3)[nH]n2c(=O)c1C,–,"inconclusive: 20.6 µM [inhibitor, single point]"
Cc1ccc(NC(=O)CCc2nnc3ccc(N4CCC5(CC4)OCCO5)nn23)cc1F,inactive: -21.7%,–
CCn1c(=O)c2c(nc(SCC(=O)N3CCC(C)CC3)n2C)n(C)c1=O,inactive: -22.1%,–
CCOC(=O)c1oc2cccc(O)c2c1CN(Cc1ccccc1)C(C)=O,inconclusive: -32.1% [inhibitor],–
Cc1cccc(-n2ccnc2SCC(=O)c2c(N)n(C3CC3)c(=O)[nH]c2=O)c1C,–,"inconclusive: 18.4 µM [inhibitor, single point]"
COc1cc(/C=C/c2noc(-c3ccccc3O)n2)cc(OC)c1OC,inactive: 1.88%,–
CC1=Nc2ccccc2/C1=C/c1c(C)[nH]c2ccccc12,–,"inconclusive: 25.9 µM [inhibitor, single point]"

SMILES,"activity change, negative = growth inhibition",Potency
COc1ccccc1CN1CC(C(=O)N(C)Cc2ccc(C)o2)CCC1=O (stereo not given),inactive: -19.1%,–
COc1ccccc1CNC(=O)CN1C(=O)NC(c2ccccc2)(c2ccccc2)C1=O,inactive: -15.2%,–
CC(=NN1CC(=O)NC1=O)c1ccc([N+](=O)[O-])o1,–,"inconclusive: 18.4 µM [inhibitor, single point]"
O=C(COc1coc(CN2CCc3ccccc32)cc1=O)Nc1ccc([N+](=O)[O-])cc1,inactive: -17.7%,–
Cc1ccccc1-c1nc(NC(C)C)nc2cc(-c3ccccc3)sc12,–,active: 16.4 µM
Cc1ccc(/C=C2/SC(=S)N(CCC(=O)N3CCOCC3)C2=O)cc1,–,active: 11.6 µM
CCOC(=O)c1ccc(NC(=O)N2CCN(c3cccc(OC)c3)CC2)cc1,–,"inconclusive: 25.9 µM [inhibitor, single point]"
CN1CCSc2ccc(C(=O)NCc3ccccc3F)cc21,–,"inconclusive: 29.1 µM [inhibitor, single point]"
CCC(c1nc2ccccc2[nH]1)n1c(=O)c(-c2ccco2)nc2ccccc21 (stereo not given),–,active: 20.6 µM
CCc1ccc(Nc2nnc(SCC(=O)Nc3sccc3C(N)=O)s2)cc1,–,"inconclusive: 18.4 µM [inhibitor, single point]"
COc1ccc(CNC(=O)CN(c2ccc(OC)cc2)S(=O)(=O)c2c(C)nn(C)c2C)cc1,inconclusive: -36.5% [inhibitor],–
CCOC(=O)c1cc(Br)c(=O)n2ccccc12,inactive: -15.4%,–
O=C(NCCO)c1nc(C(=O)c2ccc(Cl)cc2)c2ccccc2n1,inactive: 0.125%,–
N#CC1=C2SCN(c3ccc(F)cc3)CN2C(=O)CC1c1cccc(F)c1 (stereo not given),inconclusive: -9.13% [inhibitor],–
CCOc1ccc(-c2cc3nc(C4CCN(C(=O)OC(C)(C)C)CC4)c(C(=O)Nc4ccc(C)cc4Cl)cn3n2)cc1,–,"inconclusive: 29.1 µM [inhibitor, single point]"
O=C1/C(=C\c2ccc(O)cc2)SC(=S)N1/N=C/c1ccc(O)cc1,inactive: -25.1%,–
Cc1ccc(C)n1-c1ccc(C(=O)NC2CCN(Cc3ccccc3)CC2)cc1,–,"inconclusive: 18.4 µM [inhibitor, single point]"
CC(C)=C1SC(N2CCN(c3ccc(C)cc3)CC2)=NC1=O,–,"inconclusive: 16.4 µM [inhibitor, single point]"
O=C(c1cc2ccccc2o1)N1CCN(C/C=C/c2ccccc2)CC1,–,active: 14.6 µM
Cc1ccc(N(CC(=O)NCc2ccccc2)S(=O)(=O)c2c(C)noc2C)cc1,inactive: -18.1%,–
CCOc1ccccc1OCCCC(=O)N1CCN(S(=O)(=O)c2cc(F)ccc2F)CC1,–,"inconclusive: 23.1 µM [inhibitor, single point]"
CCCCCC1(C(=O)OCC)CC(CSC(=N)N)OC1=O (stereo not given),–,active: 20.6 µM
CC[C@]12c3[nH]c4ccccc4c3CCN1C(=O)C(CC(=O)NCC13CC4CC(CC(C4)C1)C3)C[C@@H]2C(=O)N1CCN(C(=O)c2ccco2)CC1 (stereo not given in full),–,"inconclusive: 23.1 µM [inhibitor, single point]"
Cc1ccc(CSCCNC(=O)c2ccc(N(C)S(=O)(=O)c3ccccc3)cc2)cc1,–,"inconclusive: 29.1 µM [inhibitor, single point]"

SMILES,"activity change, negative = growth inhibition",Potency
O=C(C[C@@H]1C/C=C\C[C@H](NC(=O)OCC2c3ccccc3-c3ccccc32)C(=O)OC[C@@H]2CCCN2C1=O)N[C@H](CO)Cc1ccccc1,–,active: 7.31 µM
COc1cc([N+](=O)[O-])cc(/C=N/N(CCC#N)C(C)=O)c1O,inactive: -25.3%,–
O=C(OCc1ccccc1Cl)C1CC(=O)N(Cc2ccco2)C1 (stereo not given),inactive: -10.3%,–
CC(C)(C)OC(=O)[C@H](Cc1ccccc1)NC(=O)c1nc[nH]c1C(=O)N[C@@H](Cc1ccccc1)C(=O)OC(C)(C)C,–,active: 14.6 µM
CCCC[C@H]1COCCS(=O)(=O)N1Cc1ccccc1F,–,"inconclusive: 14.1 µM [inhibitor, single point] and inconclusive: 29.1 µM [inhibitor, single point]"
COC(=O)C[C@H]1CC[C@H](NC(=O)c2cccc(F)c2)[C@@H](CO)O1,inactive: 8.85%,–
Cc1ccc2nc(NC(=O)C3CSC4(C)CCC(=O)N34)sc2c1 (stereo not given),inactive: -18.2%,–
C[C@H](CO)N1C[C@H](C)[C@@H](CN(C)Cc2ccc3c(c2)OCO3)Oc2c(NC(=O)C3CC3)cccc2C1=O,–,"inconclusive: 29.1 µM [inhibitor, single point]"
CCN(CC)Cc1c(O)ccc2c(=O)c(Oc3ccccc3OC)c(C)oc12,inactive: -24.9%,–
OC[C@@H]1CN(Cc2ccc(Cl)cc2)C[C@H](n2cnc3c(N4CCCC4)ncnc32)O1,–,"inconclusive: 29.1 µM [inhibitor, single point]"
Nc1ncnc2c1ncn2[C@@H]1O[C@H](C(=O)NCCc2ccc(F)cc2)[C@@H](O)[C@H]1O,inactive: -1.92%,–
COc1ccc(CN(Cc2ccccc2)C(=O)c2ccc(NC(C)=O)cc2)cc1COc1ccc(NC(C)=O)cc1,–,"inconclusive: 35.5 µM [inhibitor, single point]"
COc1ccc(Cl)cc1NC(=O)CSc1c2c(nc3ccccc13)CCC2,–,active: 20.6 µM
COCCNCc1cc(C)n(-c2cc(S(=O)(=O)N3CCOCC3)ccc2N2CCCC2)c1C,–,"inconclusive: 32.6 µM [inhibitor, single point]"
CC(=O)c1ccc(N2CCN(C(=O)c3ccc(OCc4c(C)noc4C)cc3)CC2)cc1,–,"inconclusive: 20.6 µM [inhibitor, partial curve]"
COC(=O)c1c(C)oc2ccc(NS(=O)(=O)c3cccs3)cc12,–,"inconclusive: 32.6 µM [inhibitor, single point]"
CCC(Sc1nc2ccccc2c2nc(CCc3c(C)n[nH]c3C)nn12)C(=O)Nc1ccc(OC)cc1 (stereo not given),–,"inconclusive: 29.1 µM [inhibitor, single point]"
COCCCN(C(=O)c1ccco1)c1nc(-c2cc(OC)ccc2OC)cs1,–,"inconclusive: 23.1 µM [inhibitor, single point]"
COC(=O)c1cc(OC)c(OC)cc1NC(=O)c1ccccc1C,inactive: 1.81%,–
Cc1cccc(-n2c(CCN3C(=O)c4ccccc4C3=O)nc3ccccc3c2=O)n1,–,"inconclusive: 29.1 µM [inhibitor, single point]"
COc1cc(C(=O)Nc2nc3c(s2)Cc2c(Br)ccc(OC)c2-3)cc(OC)c1OC,–,active: 14.6 µM
COc1ccc2[nH]c3c(c2c1)CCN1C(=O)C(CC(=O)NCCc2ccccn2)C[C@H](C(=O)N2CCOCC2)[C@@]31CCC1CCCC1 (stereo not given in full),–,"inconclusive: 25.9 µM [inhibitor, single point]"
